# PubChem BioAssay AID2546 (National Center for Advancing Translational Sciences (NCATS), 2010)
# Out of some 310,000 compounds screened, about 11,000 (3.5%) were called active. The inconclusive results got no clear call from the source; some entries with a clear call stand among them for comparison. Calls follow the shape of the dose curve; as a rule, active = well fitted inhibition curve with a large enough effect; inconclusive = small, poorly fitted or top-dose-only effect, or effect the other way; inactive = flat fitted curve, though single readings scatter. Potencies of inconclusive entries are left out as doubtful fits.
# Experiment: VP16 counterscreen qHTS for inhibitors of ROR gamma transcriptional activity;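 also: Gal4-VP16 expression switched on by copper sulfate through the metallothionein promoter; nearly all actives have a fitted effect of over 50% in size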
# Conditions: Drosophila S2 Gal4-VP16 UAS-luciferase, luminescence, 20 h; activity, negative = inhibition: at 53.6 µM (top of the series)
# % is scaled to controls: 0 for no effect and ±100 for the full control effect; potency is read from the fitted curve at half-maximal effect; tags tell the direction and shape of the fitted curve.
SMILES,Potency,"activity, negative = inhibition"
O=C(N/N=C\c1ccc(COc2ccc([N+](=O)[O-])cc2)o1)c1ccc(Cl)cc1,"inconclusive [inhibitor, single point]",–
COc1ccc(/C=N/Nc2nnc(-c3ncc[nH]3)c3ccccc23)cc1,active: 4.47 µM,–
NC(=S)N/N=C/c1c(O)ccc2ccccc12,active: 3.98 µM,–
CN1CCN(c2ccc(NC(=O)N3CCc4ccccc43)cc2)CC1,active: 8.91 µM,–
Fc1cccc2ncnc(OCc3ccccc3)c12,inactive,–
COc1nc(NC2CCCCC2)nc(N2CCCCCC2)n1,"inconclusive [inhibitor, single point]",–
CN(C)CCCNc1oc(/C=C/c2ccccc2)nc1C#N,inactive,–
COC(=O)c1c(NC(=S)NC(=O)c2ccco2)sc2c1CCCC2,"inconclusive [inhibitor, full curve]",–
CN(C(=O)c1ccccn1)c1nnc(-c2ccccn2)s1,"inconclusive [inhibitor, full curve, poor fit]",–
CC(=O)c1cccc(NC(=O)c2ccc3c(c2)CCN3S(=O)(=O)c2ccccc2)c1,active: 12.6 µM,–
c1ccc2c(c1)oc1c(NCC3CCCO3)ncnc12 (configuration not stated),inactive,–
S=C(NCCCN1CCOCC1)Nc1ccc(Cl)cc1,inactive,–
Cn1c(SCC(=O)c2ccccc2)nnc1-c1cccc(N)c1,"inconclusive [inhibitor, partial curve]",–
CCC(C)(C)n1nnnc1C(c1ccc(C)cc1)N1CCC(C)CC1 (configuration not stated),"inconclusive [inhibitor, single point]",–
C=CCNc1ncnc2c1cnn2-c1ccc(OC)cc1,"inconclusive [inhibitor, single point]",–
O=C(Nc1ccon1)c1sc2cc(F)ccc2c1Cl,"inconclusive [inhibitor, single point]",–
CC(Sc1nc2ccccc2s1)C(=O)Nc1nnc(C(C)C)s1 (configuration not stated),"inconclusive [inhibitor, single point]",–
Cc1cccc(-n2ncc3c(NCc4ccc5c(c4)OCO5)ncnc32)c1,"inconclusive [inhibitor, single point]",–
CC(Oc1ccc(Cl)cc1Cl)C(=O)Nc1ccc2oc(-c3ccncc3)nc2c1 (configuration not stated),inactive,–
Oc1ccc(-c2nc3cnccn3c2Nc2ccc3c(c2)OCCO3)cc1,inactive,–
CS(=O)(=O)Nc1nc2n(n1)C(c1ccc(F)cc1)CC(c1ccccc1)N2 (configuration not stated),inactive,–
O=C(Nc1ccnn1C1CCN(C(=O)c2ccccc2C(F)(F)F)CC1)C1CC1,"inconclusive [activator, partial curve, poor fit]",–
CCOC(=O)CNC(=O)CSc1nc2sc(C)c(C)c2c(=O)n1C,"inconclusive [inhibitor, single point]",–
Cc1ccc(N(C(=O)NC2CCCCC2)C2=NCCCCC2)cc1,"inconclusive [activator, partial curve]",–

SMILES,Potency,"activity, negative = inhibition"
COc1ccc(NC(=O)C2CCN(S(=O)(=O)c3ccc4c(c3)NC(=O)C(C)S4)CC2)cc1 (configuration not stated),"inconclusive [inhibitor, partial curve]",–
O=C(c1ccccc1)N1CCC(c2nc(-c3ccc(S(=O)(=O)NCC4CCCO4)cc3)no2)CC1 (configuration not stated),active: 8.91 µM,–
O=C(c1ccc(Cn2c(=S)[nH]c3ccc(Br)cc3c2=O)cc1)N1CCN(C2CCCCC2)CC1,"inconclusive [inhibitor, single point]",–
C=CCOC(=O)/C=C/C(=O)NC(N)=O,"inconclusive [inhibitor, single point]",–
O/N=C/c1ccc2cccc(O)c2n1,"inconclusive [inhibitor, single point]",–
Cc1ccnc(NS(=O)(=O)c2ccc(NC(=O)c3oc4ccc(F)cc4c3C)cc2)n1,inactive,–
CC1CN(C(=S)Nc2ccc(Br)cc2)CC(C)O1 (configuration not stated),"inconclusive [inhibitor, single point]",–
O=C(/C(C=Nc1cc2c(oc1=O)CCCC2=O)=C(\O)c1ccccc1)c1ccccc1,–,inactive: 25.4% [at 10 µM]
CC1=NN(C(=O)c2ccccc2)C(O)(c2ccc(Br)cc2)C1 (configuration not stated),"inconclusive [inhibitor, single point]",–
Oc1c(Br)cc(Br)cc1/C=N/n1c(-c2ccccc2)n[nH]c1=S,"inconclusive [inhibitor, single point]",–
O=C(Nc1ccccn1)C1(c2ccccc2)CCCC1,active: 20 µM,–
Cc1cnccc1CN(C)Cc1nc(Cc2ccccc2Cl)no1,"inconclusive [inhibitor, single point]",–
O=C(CCCN1C(=O)/C(=C/c2ccccc2)SC1=S)Nc1ccc(O)cc1,active: 2 µM,–
Cc1nn(-c2ccccc2)c(C)c1C(=O)OC/C(O)=C(\C#N)c1nc2ccccc2[nH]1,"inconclusive [inhibitor, single point]",–
CCOc1ncnc2c1sc1nc(C)cc(C)c12,inactive,–
O=C(Nc1ccc(CN2CCOCC2)cc1)c1ccccc1F,active: 11.2 µM,–
Cc1ccc(C(=O)CC(=O)c2ccc(C)cc2O)cc1,"inconclusive [inhibitor, single point]",–
CCCCC(=O)NC(c1ccc([N+](=O)[O-])cc1)c1c(O)ccc2ccccc12 (configuration not stated),"inconclusive [inhibitor, single point]",–
COc1ccc2[nH]c(=O)c(CN(C(=O)NC3CCCCC3)C3CCCC3)cc2c1,inactive,–
Cc1ccc(C(=O)Nc2ncc(Cc3ccccc3)s2)o1,"inconclusive [inhibitor, single point]",–
CC1(C)CC(=O)c2cnn(-c3nc4ccccc4[nH]3)c2C1,"inconclusive [inhibitor, single point]",–
Cc1ccc(C(C)C)c(OCC(=O)Nc2ccc3c(c2)nc(CCN2CCCCC2)n3C)c1,"inconclusive [inhibitor, single point]",–
CN(C(=S)NC(=O)c1ccccc1)C1CCCCC1,active: 1.26 µM,–
COc1ccc(N(CCCN2C(=O)c3cccc4cccc(c34)C2=O)C(=O)c2cccs2)cc1,"inconclusive [activator, single point]",–

SMILES,Potency,"activity, negative = inhibition"
Cn1c(CNc2ccc(Cl)cc2)nc2ccccc21,"inconclusive [inhibitor, single point]",–
Nc1ccc(-c2nnn(Cc3ccccc3F)n2)cc1,"inconclusive [activator, full curve]",–
COc1cccc2[nH]c3c(N4CCN(Cc5ccc6c(c5)OCO6)CC4)ncnc3c12,inactive,–
O=C(Nc1nc(-c2cccs2)c(C(=O)C(F)(F)F)s1)c1ccccc1,"inconclusive [inhibitor, single point]",–
CCOc1ccccc1NC(=O)CCCN1C(=S)NC(C)(C)CC1C (configuration not stated),"inconclusive [inhibitor, single point]",–
OCc1ccc(-c2ccc(-c3ccc(CO)s3)o2)s1,active: 1.58 µM,–
Cc1ccc(/C=N/NC(=O)c2cccc([N+](=O)[O-])c2)o1,"inconclusive [inhibitor, single point]",–
CC(C)c1ccc(O)c(N)c1,"inconclusive [inhibitor, partial curve]",–
O=C(CSc1nnc(C2CC2)n1Cc1ccccc1)c1ccc(S(=O)(=O)N2CCOCC2)cc1,"inconclusive [inhibitor, single point]",–
CCOc1ccc(N(CC(=O)Nc2cccc(OC)c2)S(=O)(=O)c2c(C)noc2C)cc1,"inconclusive [inhibitor, single point]",–
Cc1ccc(Cl)cc1NC(=S)N1CCCCCC1,"inconclusive [inhibitor, single point]",–
COCC(C)NC(=S)NCCc1ccc(Cl)cc1Cl (configuration not stated),active: 3.55 µM,–
Cc1ccc(-n2[nH]c(=O)c(-c3ccccn3)c2C)cc1,active: 2.82 µM,–
CCCc1[nH]n(-c2nc3ccccc3s2)c(=O)c1C=NCC1CCCO1 (configuration not stated),"inconclusive [inhibitor, single point]",–
CCN(CC)CCN(Cc1cc2ccc(C)c(C)c2[nH]c1=O)C(=S)NCc1ccco1,inactive,–
Cc1ccnc(N(C(=O)Nc2ccccc2)C2=NCC(C)(C)S2)c1,"inconclusive [inhibitor, single point]",–
O=C(Nc1ccc(S(=O)(=O)C(F)F)cc1)c1cccc(S(=O)(=O)N2CCOCC2)c1,"inconclusive [inhibitor, single point]",–
Cc1ccc(Cn2c(O)c(N=NC(=S)Nc3ccccc3F)c3cc(S(=O)(=O)N4CCOCC4)ccc32)cc1,"inconclusive [inhibitor, partial curve]",–
CCCCN(C)S(=O)(=O)c1ccc(C(=O)Nc2nnc(C3=COCCO3)o2)cc1,active: 1.78 µM,–
Cc1ccc(S(=O)(=O)N(CC(=O)N2CCC(C)CC2)Cc2ccccc2F)cc1,inactive,–
Cc1ccccc1NC(=S)NC(=O)COc1ccccc1C,"inconclusive [inhibitor, single point]",–
COC(=O)c1c(NC(=O)c2ccc([N+](=O)[O-])o2)sc2c1CCN(C(C)C)C2,"inconclusive [inhibitor, single point]",–
CCOc1cccc2oc(-c3ccccc3Cl)cc(=O)c12,"inconclusive [inhibitor, single point]",–
COc1ccc(NC(=S)Nc2ccccc2)c(OC)c1,"inconclusive [inhibitor, single point]",–
